# Experimental data from the supplement of paper PMC3334620.
# The full ranking holds about 33,000 sequences; the median of “E-score (-0.5 to 0.5)” is about -0.011, and the highest 2% start at about 0.28. This is one part of the list.
# Molecular target: T1, Gcr1 (UniProt P07261)
# T1 sequence: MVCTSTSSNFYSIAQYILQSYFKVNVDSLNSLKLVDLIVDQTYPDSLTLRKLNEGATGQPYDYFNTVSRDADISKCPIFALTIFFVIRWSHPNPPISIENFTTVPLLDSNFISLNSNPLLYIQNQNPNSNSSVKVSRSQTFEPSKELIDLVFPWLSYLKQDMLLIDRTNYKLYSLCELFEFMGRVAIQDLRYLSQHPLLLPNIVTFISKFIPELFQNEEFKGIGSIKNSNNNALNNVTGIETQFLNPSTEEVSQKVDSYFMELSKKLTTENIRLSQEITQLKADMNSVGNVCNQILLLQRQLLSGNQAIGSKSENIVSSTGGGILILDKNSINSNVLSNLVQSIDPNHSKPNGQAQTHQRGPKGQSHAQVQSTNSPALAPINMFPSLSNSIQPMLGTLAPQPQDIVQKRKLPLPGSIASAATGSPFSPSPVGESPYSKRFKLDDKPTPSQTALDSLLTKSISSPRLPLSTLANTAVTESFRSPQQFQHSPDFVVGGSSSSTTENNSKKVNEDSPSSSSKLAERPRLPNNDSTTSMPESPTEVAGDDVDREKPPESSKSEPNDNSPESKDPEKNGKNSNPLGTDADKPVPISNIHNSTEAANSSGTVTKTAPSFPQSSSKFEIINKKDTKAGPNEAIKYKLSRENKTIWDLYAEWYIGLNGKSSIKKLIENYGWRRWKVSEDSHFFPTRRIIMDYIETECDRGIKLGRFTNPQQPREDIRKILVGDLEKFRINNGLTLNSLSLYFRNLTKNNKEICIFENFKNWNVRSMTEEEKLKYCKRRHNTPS
# Experiment: PBM E-score (8-mer binding enrichment) (E-score (-0.5 to 0.5)); higher = stronger / more preferred TF binding; most listed sequences are background and not binding sites
# Settings: protein concentration: 100 nM; construct: GST-full length
# How it was run: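 The E-score, a modified Wilcoxon-Mann-Whitney statistic, was computed by the Universal PBM Analysis Suite for every ungapped eight-base word pooled with its reverse complement. Scans behind it were normalised with masliner after bound GST-tagged yeast transcription factors were detected with fluorescent anti-GST. The proteins, at about 100-200 nM, had been applied to universal all-10-mer Agilent arrays made double-stranded by primer extension.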
row,Sequence,PBM E-score
1,CAGTGCTA,-0.126
2,CTTCCTGC,0.177
3,AGTTATTA,0.0695
4,CTATAACC,-0.0756
5,CCATGCGG,-0.0115
6,AAATTAAG,0.0604
7,GACTTTAA,-0.0686
8,CACTGCCG,-0.0677
9,ATCTCTAC,0.0209
10,AGCCTGTG,-0.235
11,ACATCGGA,-0.0949
12,CCCCCACG,-0.216
13,GTCATGCA,-0.1
14,GAAGGGCA,-0.171
15,CAGTCACC,-0.0546
16,CGAATAGC,-0.154
17,AAAATACA,0.0681
18,GTCCGTTA,-0.0901
19,ACAACTTA,-0.0215
20,AGACAGGG,0.0824
21,ATAACAAA,0.0456
22,ACCTTGTG,-0.204
23,ACTGCGCC,-0.153
24,ATGGAACC,0.294
25,CCTGTCAG,-0.0225

row,Sequence,PBM E-score
1,AAGTAGCA,0.215
2,AGGATTTC,-0.121
3,ACGGGTCT,-0.221
4,GCGTGCAC,-0.0959
5,CGTCCTAA,0.17
6,ATAATGCC,-0.102
7,TACTCTGA,-0.106
8,CATTTCCC,0.0282
9,TTCTAAAA,0.0989
10,GTTAAAAC,-0.0162
11,GACCTAGA,-0.083
12,CGCGTTAC,-0.145
13,CATAACGG,-0.0324
14,AGGTATGG,0.228
15,CATAAACC,-0.215
16,CCTACTCG,-0.0397
17,AGGGGAAC,-0.00862
18,ACTTTAGC,-0.0523
19,AAGATGCC,0.31
20,CTCCAAAG,0.106
21,GGTTTTCA,0.0994
22,GCTTTCCA,-0.0339
23,ATGTTGGA,0.0457
24,AAAAAACT,-0.0404
25,ATGTCTAC,-0.0532

row,Sequence,PBM E-score
1,GATACATC,0.126
2,CAGATCGA,-0.044
3,ATGTCGGG,0.0104
4,TGGCTGAA,0.0392
5,AGGCCGAG,-0.0943
6,AGAGCACG,-0.0799
7,GGAATCAC,0.0399
8,CCATCTAA,0.0606
9,GCACGAAC,0.054
10,CGCTAGCA,0.106
11,AATCACGT,0.0314
12,AACAACTG,0.0271
13,GATAAGGA,0.184
14,GGAAATGA,0.0726
15,AACACTAA,0.065
16,AACTTAGA,0.12
17,AGATGGGG,0.0136
18,AGCCATGC,-0.346
19,CGTCTGGA,0.0436
20,ACGAGCGT,-0.161
21,ACTGCTAA,-0.0287
22,ATAGTGCA,-0.00123
23,CACTAGAC,-0.065
24,AGCTCACA,-0.278
25,CTCGCGGA,0.0288

row,Sequence,PBM E-score
1,CCATCCAG,0.151
2,GACATTGA,0.0742
3,AAATAGCA,0.047
4,ATTTCCAA,0.0988
5,AGCTTTAT,0.114
6,GGATCCTA,0.272
7,CCTGAACG,0.0377
8,CTAACGAG,-0.257
9,GATGCAGA,0.189
10,AGGCCCCA,-0.112
11,CCAACCGA,-0.0275
12,ACAAACGT,0.0511
13,ACAAAGGT,-0.136
14,ACCCCTAA,0.117
15,CGAGGACC,-0.112
16,AGCTGAGG,-0.18
17,CCGGTTCG,-0.0186
18,CGAGCGCC,0.0329
19,ACACACAA,0.102
20,GGTTCCAC,0.305
21,CGCCCGGA,0.0811
22,TAAGGTCA,-0.181
23,AATCGGCG,0.184
24,CCATAAGG,-0.0957
25,ACGTCGCT,0.00247

row,Sequence,PBM E-score
1,CACTGCAA,-0.074
2,AAACACCA,-0.0248
3,GTTCAACA,-0.0157
4,ACGTAGAA,-0.0969
5,TGAATCAA,0.0804
6,ATCATCTC,-0.00135
7,ATCGCTGG,-0.126
8,CTAGGTCA,-0.318
9,CAGTCTAG,0.0197
10,AGTTTCCG,0.176
11,ATTGGGCA,-0.116
12,ACGGCCCA,-0.172
13,CACCTTCC,0.156
14,TGCTGCCA,-0.0494
15,CCCATCAA,0.12
16,GAGAACAA,-0.0288
17,ACTGACGC,-0.142
18,ATTCCACA,0.247
19,AAAGTCTA,-0.0407
20,GCGAAGGA,0.0489
21,AGGACTTG,-0.169
22,AAGTTCCC,0.195
23,GCCCCAGC,-0.0201
24,GTATAGGA,0.095
25,GAATGGGC,0.174

row,Sequence,PBM E-score
1,CGCACGCG,-0.113
2,CCCCTTCC,-0.153
3,ATTCACAA,0.133
4,ACTAAAGG,0.0575
5,ATCCGATG,0.00075
6,ATCGGTGG,0.0966
7,GATCTGGC,0.122
8,GGGGGCAC,0.0135
9,CAGAGCAC,-0.0302
10,AGAGCGGG,0.00264
11,CGAAGGCC,-0.157
12,AACTGGCT,0.0446
13,AGGGCCCA,0.126
14,ACCCATCA,0.0102
15,AGTGAACT,0.0469
16,CATACGAA,0.0396
17,CTTCCCGC,-0.0343
18,GTCCCCTA,0.126
19,GAGTTGAA,0.0916
20,GATAAGGC,-0.0309
21,AAAAGGCG,0.217
22,CCTAATCC,0.00779
23,AATAAATC,0.165
24,CTCCGCAG,0.0264
25,ATATCTGG,0.088

row,Sequence,PBM E-score
1,ACTACGAC,0.0678
2,CTTCATTC,-0.0354
3,TAAATCCA,0.124
4,ATACGTGG,0.169
5,CGTAGAAG,0.275
6,GGTTTGAC,0.0178
7,CGGGGAGA,-0.0481
8,CCCTAAAG,0.0225
9,CTGAGCTC,-0.0736
10,CGTGATCC,-0.0715
11,CTGGCGCC,0.319
12,CACCCTAC,-0.181
13,CACATTGC,-0.0679
14,ATCGGATA,0.0757
15,CTGCCTTA,-0.0279
16,GCATATAA,0.125
17,CTCGCTCA,0.0789
18,GATGCCCA,0.378
19,GAGGATGC,0.423
20,ACTATATG,-0.0145
21,TTAGTGAA,0.133
22,CAAGGCCC,-0.0748
